{
  "source": "the supplement of paper PMC11417369",
  "note": "The list shows a part of the results.",
  "data": [
    {"tested_on": "PfHDP1 homeodomain (GST-tagged)", "test": "gcPBM binding intensity (ln(normalized median fluorescence intensity)); higher = stronger DNA binding", "outline": "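An Agilent 4 × 180k array carrying primer-extended double-stranded 36-bp intergenic genomic probes and negative controls received GST-tagged P. falciparum DNA-binding domains expressed in E. coli, about 25 μg on average, for 1 h. The binding buffer contained 1× PBS, 1% milk, 0.2 mg/ml BSA, 0.5% salmon testes DNA and 0.03% Triton X-100. Binding intensity is the top Masliner-normalised natural-log median intensity across replicate spots of either probe orientation, read after Alexa488 anti-GST antibody staining and a 488 nm scan.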", "values": [
      {"sequence": "TTTTTTTAATTAGTTTGTACATATTGTTATAATATA [XGTACX_site6294]", "gcPBM binding intensity (ln)": 6.67},
      {"sequence": "CATGTTATGATTCCATGTACTTATAGCATTAAAAAA [XGTACX_site8939]", "gcPBM binding intensity (ln)": 6.59},
      {"sequence": "AAAAAAAAATACATATGTACTTATGTATAATGTTGT [XGTACX_site8104]", "gcPBM binding intensity (ln)": 6.52},
      {"sequence": "ATTATACCACCCGATATACACACTTGTAGACATCTT [CACACA_site7944]", "gcPBM binding intensity (ln)": 6.79},
      {"sequence": "TTAATTACATGTAATTGTACTTAATTATAAGACATT [XGTACX_site464]", "gcPBM binding intensity (ln)": 6.28},
      {"sequence": "TATTACTTATAAATTACACACAAATGATTGAACATT [CACACA_site2259]", "gcPBM binding intensity (ln)": 6.42},
      {"sequence": "TATACCTTTTTATTCACACATATATGTCATATGTCA [CACACA_site5423]", "gcPBM binding intensity (ln)": 7.25},
      {"sequence": "TTAAAATAAAGAAAATGTACATAAATAAAAATAAAG [XGTACX_site2280]", "gcPBM binding intensity (ln)": 6.95},
      {"sequence": "TTTTACCTAAATATCACACATATTTAAATATATATA [CACACA_site5597]", "gcPBM binding intensity (ln)": 6.48},
      {"sequence": "ATCACATATATATATAATATATATATGTATATATTT [GTGCAC_negctrl_site249]", "gcPBM binding intensity (ln)": 6.41},
      {"sequence": "AAAAAAAATATATATGCACACACAAAAAAACAAATT [CACACA_site8349]", "gcPBM binding intensity (ln)": 9.18},
      {"sequence": "ATATATATATATATATGTACATATATTTTTATTTAT [XGTACX_site3508]", "gcPBM binding intensity (ln)": 9.2},
      {"sequence": "CAACTAATATTAAAACGTACATAAATATTTAACAGA [XGTACX_site625]", "gcPBM binding intensity (ln)": 6.59},
      {"sequence": "TTACCAAAAAAATGTAGTACAATATAATATTATTTA [XGTACX_site5750]", "gcPBM binding intensity (ln)": 7.36},
      {"sequence": "AATATATATATTTAAGTGCATAATATTGTAATATTA", "gcPBM binding intensity (ln)": 9.76},
      {"sequence": "ATATATTATGAAGACTGTACATTTACATGAAAAAAA [XGTACX_site7203]", "gcPBM binding intensity (ln)": 6.5},
      {"sequence": "CACCCCCACAGACACACACACACACCCATATATATA [CACACA_site364]", "gcPBM binding intensity (ln)": 7.09},
      {"sequence": "AAGATTCATTGGTTCTGTACAAAATAAACACTATAA [XGTACX_site834]", "gcPBM binding intensity (ln)": 6.68},
      {"sequence": "TTAATTGACATAAAAAGTACTCATATAGATATGCAC [XGTACX_site6391]", "gcPBM binding intensity (ln)": 6.73},
      {"sequence": "AAATGTTAATAAAGGTGTACACAAAATAAAAAAAAT [XGTACX_site463]", "gcPBM binding intensity (ln)": 7.71},
      {"sequence": "AAAAAGAACAGAAACACACAAATAAAATAAAATTGT [CACACA_site6921]", "gcPBM binding intensity (ln)": 6.41},
      {"sequence": "TAATTTTATTTTATATGTACGCAATACAAATATATA [XGTACX_site8461]", "gcPBM binding intensity (ln)": 6.13},
      {"sequence": "TTTATTTAAAAAGTTTGTACATATATATTATTTTGA [XGTACX_site6040]", "gcPBM binding intensity (ln)": 6.3},
      {"sequence": "CATATATAAATATATACACACATACATACATACATA [CACACA_site5988]", "gcPBM binding intensity (ln)": 6.62},
      {"sequence": "ATATTATAGTTATGAACATGCAAACATTACGAAATA [TGCATGCA_site54]", "gcPBM binding intensity (ln)": 6.77},
      {"sequence": "AATTTATTATTTTATTGTACGTATTTTTTTTTTTAT [XGTACX_site2298]", "gcPBM binding intensity (ln)": 6.37},
      {"sequence": "AAAAAATATTAGACTTATAAAGCATAAAGGATATTA [GTGCAC_negctrl_site588]", "gcPBM binding intensity (ln)": 6.27},
      {"sequence": "AAATGACATTTCAAAAGTACATATTTAATTAATTAA [XGTACX_site2919]", "gcPBM binding intensity (ln)": 6.16},
      {"sequence": "TTTATATATATAATATGTACACATAATAATAATACA [XGTACX_site4862]", "gcPBM binding intensity (ln)": 6.49},
      {"sequence": "ATATATAATTAATTTTGTACACATAAAAAAAAAAAT [XGTACX_site6647]", "gcPBM binding intensity (ln)": 6.6},
      {"sequence": "AGAGAGAAAGCTATAACATGCAACAATTTTTTGAAA [TGCATGCA_site514]", "gcPBM binding intensity (ln)": 6.48},
      {"sequence": "ATATCTTATAATACGGTGCACTTGACATGAACAACT [GTGCAC_site9987]", "gcPBM binding intensity (ln)": 10.3},
      {"sequence": "ATATTTGCATGTGGTAGTACATAACATTCTTTTACA [XGTACX_site8194]", "gcPBM binding intensity (ln)": 7.13},
      {"sequence": "CTTCAATTAAAATTCACACATATAAATTAAAATATT [CACACA_site6129]", "gcPBM binding intensity (ln)": 6.04},
      {"sequence": "ATAAAAAAGAAACAAACACACATACATACAAACAAA [CACACA_site4256]", "gcPBM binding intensity (ln)": 6.89},
      {"sequence": "AAATAGAGAAATACAAGTACATATCAAACCAATATA [XGTACX_site1192]", "gcPBM binding intensity (ln)": 6.25},
      {"sequence": "CTTTTGTCATTCTTTTGTACACAGTTTGAAATATGT [XGTACX_site1457]", "gcPBM binding intensity (ln)": 6.93},
      {"sequence": "ATAATAAATAAATAATGTACATATGAAAGAATAAAT [XGTACX_site8355]", "gcPBM binding intensity (ln)": 7.34},
      {"sequence": "TCATATATTTTAATATGTACACATTTTTTTGGTATA [XGTACX_site8695]", "gcPBM binding intensity (ln)": 6.22},
      {"sequence": "TACAGACTAAAATACACACACACACGCACATATATA [CACACA_site7875]", "gcPBM binding intensity (ln)": 7.33},
      {"sequence": "TTTTTCTTTATTAGCACACATAATATTATATATGTG [CACACA_site2629]", "gcPBM binding intensity (ln)": 7.1},
      {"sequence": "TACATTTATATATATACACACACACTAATAAAAAAA [CACACA_site8845]", "gcPBM binding intensity (ln)": 7.01},
      {"sequence": "ATATGTATATATAAGGTGCAGAAAGGTGGGCAAAAG", "gcPBM binding intensity (ln)": 9.15},
      {"sequence": "TAAATACAGATATATACACACATATATATATTTTAT [CACACA_site5970]", "gcPBM binding intensity (ln)": 6.54},
      {"sequence": "ATTATTTGTTTAATGAGTACGAAGACAAATTTTACC [XGTACX_site5223]", "gcPBM binding intensity (ln)": 6.8},
      {"sequence": "TATATACACAGACACACACACACATACACGCACATA [CACACA_site6909]", "gcPBM binding intensity (ln)": 7.92},
      {"sequence": "GTACTATACAAAGATGATAATCAATATATATATATA [XGTACX_negctrl_site264]", "gcPBM binding intensity (ln)": 9.11},
      {"sequence": "AAAGGAAAAAAAAGCACACACAATATTACTTGAAAT [CACACA_site2588]", "gcPBM binding intensity (ln)": 6.9},
      {"sequence": "ATATAAACAATATTTTGTACATAATTTTATGAGCAT [XGTACX_site6933]", "gcPBM binding intensity (ln)": 6.63},
      {"sequence": "AAAGAAAGAAGAAATTGTACATAATAAATAAGTAAA [XGTACX_site3311]", "gcPBM binding intensity (ln)": 6.25},
      {"sequence": "GCATATGTTTATTGCACACACCAAAAAGAAAACATA [CACACA_site4384]", "gcPBM binding intensity (ln)": 10.5},
      {"sequence": "ATTCTTTTAAAATAGGTGCTAAAAATAATATGTTAC", "gcPBM binding intensity (ln)": 7.19},
      {"sequence": "TTCACCAGTTGGTAAACATGCAATTTTCCATACAAG [TGCATGCA_site267]", "gcPBM binding intensity (ln)": 6.4},
      {"sequence": "AAAAAAAACGGACACACACACATACCCATACATACA [CACACA_site5574]", "gcPBM binding intensity (ln)": 6.69},
      {"sequence": "ATATAAATACATAAATGTACTTACCATTTAAATATG [XGTACX_site5254]", "gcPBM binding intensity (ln)": 6.28},
      {"sequence": "CAAACAATTAAACAAACACACATATACAAGTATTTA [CACACA_site5177]", "gcPBM binding intensity (ln)": 6.37},
      {"sequence": "TATATTTACTTATGAAGTACATATATATATATATAT [XGTACX_site5069]", "gcPBM binding intensity (ln)": 9.37},
      {"sequence": "TGTTCTTTTTATACTACACACTGATAAAAAAACAAA [CACACA_site3001]", "gcPBM binding intensity (ln)": 6.75}
    ]}
  ]
}
